{"source": "PubChem BioAssay AID686979", "about": "(National Center for Advancing Translational Sciences (NCATS), 2013)", "note": "Several values for one entry are separate records, joined by “and”; a condition that tells them apart may be missing. Equal values may be shown once. Hit rate of the full screen: of about 420,000 compounds, about 50,000 (12%) were called active. This list was built around the results that the source calls inconclusive (neither active nor inactive); the mix of calls is not that of the screen. Calls come from the whole dose curve; as a rule, active = well fitted inhibition curve with a large enough effect; inconclusive = small, poorly fitted or top-dose-only effect; inactive = flat fitted curve, though single readings scatter. Potencies of inconclusive entries are left out as doubtful fits. Some structures have more than one record in an assay (separate samples or runs), and their calls can disagree. % is set by controls: 0 for no effect and ±100 for the full control effect; potency is the fitted concentration of half-maximal effect; tags give direction and shape of the fitted curve."}
{"assay": "qHTS for Inhibitors of human tyrosyl-DNA phosphodiesterase 1 (TDP1): qHTS in cells in presence of CPT; note: nearly all actives have a fitted effect of over 55% in size", "conditions": "chicken DT40 Tdp1-/-;hTDP1 cells + 20 nM CPT, ATP luminescence, 48 h; activity change, negative = growth inhibition: at 46.2 µM (top of the series) unless noted", "procedure,_shortened": "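Chicken DT40 Tdp1-/- cells stably complemented with human TDP1 were seeded at 400 cells/well in medium containing 20 nM camptothecin, exposed to pin-transferred compounds, and grown at 37 °C for at least 48 hr. Viability was read as ATP luminescence.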"}
{"smiles": "CCc1c(C2(O)CCCCC2)[nH]c2cc(C(F)(F)F)ccc12", "Potency": "inconclusive [inhibitor, single point]"}
{"smiles": "CCOC(=O)c1ccccc1NC(=O)CSc1cn(CC(=O)N2CCCCCC2)c2ccccc12", "Potency": "inconclusive [inhibitor, single point]"}
{"smiles": "COc1ccc(-c2nnc(SCC(=O)N3c4ccccc4Sc4ccccc43)o2)cc1", "Potency": "inconclusive [inhibitor, single point]"}
{"smiles": "Cc1noc(C)c1-c1ccc2ncnc(N3CCN(C)CC3)c2c1", "Potency": "inconclusive [inhibitor, single point]"}
{"smiles": "Cc1cccc2cc3c(N)c(C(=O)N4CCc5ccccc54)sc3nc12", "Potency": "active: 3.66 µM"}
{"smiles": "CCCCN(CC(=O)NCc1ccc(F)cc1)C(=O)c1ccco1", "activity change, negative = growth inhibition": "inactive: -16.9%"}
{"smiles": "CN(C)c1ccc(-c2cncnc2Nc2ccccc2)cc1", "Potency": "inconclusive [inhibitor, single point]"}
{"smiles": "COc1ccc(C(C)(C)C)cc1NC(=O)CCc1c(C)noc1C", "activity change, negative = growth inhibition": "inconclusive: -34.2% [inhibitor]"}
{"smiles": "COc1ccc(N/C(N)=N/c2nc(C)cc(C)n2)cc1", "activity change, negative = growth inhibition": "inactive: -21%"}
{"smiles": "CCCOc1ccc(CC(=O)N/N=C\\c2ccc(F)cc2)cc1", "activity change, negative = growth inhibition": "inactive: -23%"}
{"smiles": "Cc1ccc(C)c(NC(=O)CCCCCCCCCCC2COCCO2)c1", "note": "(configuration not stated)", "activity change, negative = growth inhibition": "inactive: -10.7%"}
{"smiles": "CCOc1ccc(C(=O)c2oc3ccccc3c2NC(=O)c2cc(=O)c3ccc(C)cc3o2)cc1", "activity change, negative = growth inhibition": "inactive: -3.12%"}
{"smiles": "O=C(O)c1ccccc1CSc1nc2ccccc2s1", "activity change, negative = growth inhibition": "inactive: -12.8%"}
{"smiles": "CCOc1ccc(CN2CCC(C(=O)Nc3cccc(-c4ccn[nH]4)c3)CC2)cc1Cl", "Potency": "inconclusive [inhibitor, single point]"}
{"smiles": "COc1c(C)cc(C(=O)C2CCCN(C(=O)CCc3scnc3C)C2)cc1C", "note": "(configuration not stated)", "Potency": "inconclusive [inhibitor, single point]"}
{"smiles": "CC(C)(C)c1ccc(C(=O)Nc2ccc(NC(=O)c3ccco3)cc2)cc1", "Potency": "inconclusive [inhibitor, single point]"}
{"smiles": "COCCNc1nc(Nc2ccc(C)cc2C)c2sc(-c3ccccc3)cc2n1", "Potency": "active: 25.9 µM"}
{"smiles": "OCC1OC(n2cnc3c(NCc4ccco4)ncnc32)C(O)C1O", "note": "(configuration not stated)", "Potency": "active: 1.64 µM and active: 1.26 µM and active: 2.31 µM"}
{"smiles": "COCCn1c(SCC(=O)N2CCC(C)CC2)nc2c([nH]c3ccccc32)c1=O", "Potency": "inconclusive [inhibitor, single point]"}
{"smiles": "Cc1nc(CN(C)C(=O)c2ccccc2OC2CCN(S(C)(=O)=O)CC2)cs1", "activity change, negative = growth inhibition": "inactive: 1.18%"}
{"smiles": "COc1ccccc1Oc1ccc(N/C=C/C(=O)c2ccco2)cc1", "Potency": "inconclusive [inhibitor, single point]"}
{"smiles": "OCCN1CCN(c2ncnc3c2ncn3[C@H]2CN(Cc3ccncc3)C[C@@H](CO)O2)CC1", "activity change, negative = growth inhibition": "inactive: -1.84%"}
{"smiles": "COc1ccccc1CNC(=O)c1ccc(N2CCOCC2)c([N+](=O)[O-])c1", "activity change, negative = growth inhibition": "inactive: -24.8%"}
{"smiles": "O=[N+]([O-])c1c(Nc2cccc(O)c2)cc(Cl)c2nonc12", "Potency": "active: 1.84 µM"}
{"smiles": "CC(SC1=NS(=O)(=O)c2ccccc21)C(=O)O", "note": "(configuration not stated)", "Potency": "inconclusive [inhibitor, single point]"}
{"smiles": "COc1cccc(OCC(O)CN2CCN(CCN3C(=O)c4cccc5cccc(c45)C3=O)CC2)c1", "note": "(configuration not stated)", "Potency": "inconclusive [inhibitor, single point]"}
{"smiles": "COc1ccccc1Nc1nc(N)nc(-c2oc3ccccc3c2C)n1", "Potency": "active: 8.2 µM"}
{"smiles": "Cc1cc(C)c2cc(CN(Cc3ccco3)C(=S)NCC3CCCO3)c(=O)[nH]c2c1", "note": "(configuration not stated)", "Potency": "active: 18.4 µM"}
{"smiles": "Cc1ccc(C(=O)O/N=C(\\N)c2ccccn2)c(Cl)c1", "Potency": "inconclusive [inhibitor, single point]"}
{"smiles": "O=C(NC1C=CS(=O)(=O)C1)c1sc2ccccc2c1Cl", "note": "(configuration not stated)", "Potency": "inconclusive [inhibitor, single point]"}
{"smiles": "COc1ccc(-c2nc3c4ccccc4n(CC(=O)N4CCN(c5ccccc5F)CC4)c(=O)n3n2)cc1", "Potency": "inconclusive [inhibitor, partial curve, poor fit]"}
{"smiles": "CSc1nc(NC(C)(C)C)nc(Oc2ccc(=O)[nH]n2)n1", "activity change, negative = growth inhibition": "inactive: -5.33%"}
{"smiles": "O=[N+]([O-])c1ccc(Cl)c(CN2CCN(c3ncc(Cc4ccccc4)cn3)CC2)c1", "Potency": "active: 23.1 µM"}
{"smiles": "Cc1ccc(C(=O)NC(=S)NCc2cccnc2)c(C)c1", "Potency": "inconclusive [inhibitor, single point]"}
{"smiles": "C=CCN(CC=C)CCOc1ccc(C)cc1[N+](=O)[O-]", "Potency": "inconclusive [inhibitor, single point]"}
{"smiles": "CCc1ccc(NC(=O)CCCc2nnc3n(C(C)CC)c(=O)c4sccc4n23)cc1", "note": "(configuration not stated)", "activity change, negative = growth inhibition": "inactive: -80.5%"}
{"smiles": "COCC(=O)N1CCC2(CC1)CCN(c1ccncc1)CC2", "Potency": "inconclusive [inhibitor, single point]"}
{"smiles": "Cc1csc(=O)n1CC(=O)OCC(=O)NCc1ccc(Cl)cc1Cl", "activity change, negative = growth inhibition": "inactive: 2.52%"}
{"smiles": "Cc1ccc(C)c(N2CCN(CC(=O)Nc3ccc([N+](=O)[O-])cc3C(=O)Nc3ccccc3F)CC2)c1", "Potency": "inconclusive [inhibitor, single point]"}
{"smiles": "CC(C)(C)OC(=O)N(CCc1ccccc1)Cc1ccc(OCc2cccc(NC(=O)C3CCCC3)c2)cc1", "Potency": "active: 5.17 µM"}
{"smiles": "C=C1CC2(OC1=O)c1ccccc1CCc1ccccc12", "Potency": "active: 4.61 µM"}
{"smiles": "NC(=O)/C(N=Nc1ccccc1)=N/Nc1ccccc1", "Potency": "active: 18.4 µM"}
{"smiles": "Cc1ccc(C(=O)N/C(N)=N/c2nc3ccccc3o2)cc1", "Potency": "inconclusive [inhibitor, partial curve, poor fit]"}
{"smiles": "Oc1ccc(/C=C/c2ccc3ccccc3n2)cc1", "Potency": "active: 23.1 µM"}
{"smiles": "COc1ccc(C2Nc3ccccc3C(=O)N2c2ccc(F)cc2)cc1COc1ccc(NC(C)=O)cc1", "note": "(configuration not stated)", "Potency": "inconclusive [inhibitor, single point]"}
{"smiles": "Cc1cccc2sc(N(CCCN(C)C)C(=O)c3ccc(Cl)s3)nc12", "Potency": "active: 23.1 µM"}
{"smiles": "Cc1ccc(Nc2nc3c(S(=O)(=O)c4ccccc4)nnn3c3ccsc23)c(C)c1", "Potency": "inconclusive [inhibitor, single point]"}
